From the supplement of paper PMC10126150
Sequences with one replicate were seen in a single cluster, so their values are uncertain.

System: ATP
Assay: switch fluorescence ratio, 500 uM ATP over buffer (Cy3 cluster intensity, sum of 5 cycles each) (fold (ratio)); higher = stronger signal-on switching upon ATP binding; sequences stand for … in TCGTCGGCAGCGTCAGATGTGTATAAGAGACAGTTTTTTTTTTTTTTTTTTTTTTTTT…TC
Details: aptamer strand: ATP DNA aptamer (quencher-CACCTGGGGGAGTATTGCGGAGGAAGG + anchor), 100 nM annealed; ATP concentration: 500 uM; one replicate
Procedure, shortened: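 The fluorescence ratio divides summed target-cycle Cy3 intensity by summed buffer-cycle Cy3 intensity for each cluster and is averaged per switch-domain sequence. Cy3-labelled switching-strand clusters on a modified Illumina MiSeq flow-cell were annealed to 100 nM quencher-labelled ATP aptamer, then imaged in selection buffer and again after 15 min with 500 uM ATP at 22 °C. Five such cycles were run, with NaOH stripping and re-annealing between them, and clusters outside 100-1000 RFU were excluded.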
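Note: ATP exposure 15 min at 22 °C before imaging.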

| Sequence | switch fluorescence ratio |
| --- | --- |
| ACAGTGAAAC | 1 |
| ACAGTTATAA | 1.01 |
| ACAGTTCGTT | 0.934 |
| ACAGTTGGCA | 0.987 |
| ACAGTTTAGT | 1.02 |
| ACAGTTTGCA | 1 |
| ACAGTTTGCT | 0.972 |
| ACATAAACGT | 1.13 |
| ACATAATAAA | 1.04 |
| ACATAATAGC | 1.01 |
| ACATCAGGC | 1.09 |
| ACATCAGTC | 1.05 |
| ACATCCGTTA | 1.19 |
| ACATCCTGGG | 1.05 |
| ACATCGCTTC | 1.18 |
| ACATCGTGCT | 1.02 |
| ACATCTGCTT | 1.03 |
| ACATGACTAT | 1.1 |
| ACATGATCCT | 1.03 |
| ACATGATTAC | 1.11 |
| ACATGCCTCG | 1.09 |
| ACATGCCTTT | 1.08 |
| ACATGCGGGT | 1.06 |
| ACATGGCTGC | 0.988 |
| ACATGGCTTG | 0.994 |

| Sequence | switch fluorescence ratio |
| --- | --- |
| ACATGGGCCA | 1.04 |
| ACATGGGGTG | 1.11 |
| ACATGTATCA | 0.998 |
| ACATGTTTGC | 1.04 |
| ACATTAAGC | 1.03 |
| ACATTATTCG | 1.05 |
| ACATTGATTT | 1.01 |
| ACATTGCTAA | 1.01 |
| ACATTGGACT | 1.1 |
| ACATTTAGAT | 1.03 |
| ACATTTTTGG | 1.01 |
| ACCAAATCCG | 1.35 |
| ACCAACCTTT | 1.13 |
| ACCAAGAAGA | 0.964 |
| ACCAAGCTCT | 0.981 |
| ACCAAGCTTA | 1.04 |
| ACCAAGGGG | 0.997 |
| ACCAAGTAGT | 1.02 |
| ACCAATATAG | 1.06 |
| ACCACCGCTG | 1.33 |
| ACCACGAGGT | 1.05 |
| ACCACTAGCG | 1.07 |
| ACCAGAGTCA | 0.987 |
| ACCAGCAACG | 1.07 |
| ACCAGGTGAG | 2.71 |

| Sequence | switch fluorescence ratio |
| --- | --- |
| ACCAGTCTT | 0.953 |
| ACCAGTGAGG | 1.01 |
| ACCATAGCTG | 1.11 |
| ACCATATAAG | 1.06 |
| ACCATCGAAA | 1.03 |
| ACCATCGAAC | 1.06 |
| ACCATGTTAG | 1.04 |
| ACCATTGGCA | 1 |
| ACCATTTATA | 1.03 |
| ACCATTTTT | 0.986 |
| ACCCAAAACG | 1.05 |
| ACCCAAAGTA | 1.02 |
| ACCCAATAAC | 2.43 |
| ACCCAGGGTC | 1.3 |
| ACCCAGTGAC | 1.64 |
| ACCCATACAG | 1.07 |
| ACCCATATG | 1.08 |
| ACCCATCTAT | 1.06 |
| ACCCCATGAA | 1.04 |
| ACCCCTACCT | 1.18 |
| ACCCCTGAGC | 1.09 |
| ACCCGACGCT | 4.81 |
| ACCCGACTTT | 1.14 |
| ACCCGAGTCG | 1 |
| ACCCGGGCGC | 0.979 |

| Sequence | switch fluorescence ratio |
| --- | --- |
| ACCCGTACGC | 1.78 |
| ACCCTGAACG | 1.16 |
| ACCCTGCATC | 1.81 |
| ACCCTGCCAG | 1.01 |
| ACCCTGTATG | 0.989 |
| ACCGAGGGCG | 0.983 |
| ACCGATCCGA | 1.35 |
| ACCGATGGTT | 0.977 |
| ACCGCAGGGT | 0.99 |
| ACCGCAGTCA | 1.57 |
| ACCGCATCGG | 1.04 |
| ACCGCCCCTT | 1.21 |
| ACCGCCGCCT | 1.14 |
| ACCGCGAATT | 1.36 |
| ACCGCGGTGC | 2.94 |
| ACCGCGTCAA | 1.21 |
| ACCGCGTTTG | 1.04 |
| ACCGCTGCGC | 1.62 |
| ACCGGATTCA | 0.999 |
| ACCGGATTTC | 1.1 |
| ACCGGCGCCA | 1.07 |
| ACCGGGAAGC | 1.03 |
| ACCGGGCAGG | 1.06 |
| ACCGGGTCCA | 0.99 |
| ACCGGGTCTA | 1 |

| Sequence | switch fluorescence ratio |
| --- | --- |
| ACCGGTCCGA | 1.14 |
| ACCGGTTAGT | 0.994 |
| ACCGGTTTG | 1.01 |
| ACCGTCCATA | 1.07 |
| ACCGTCCGCG | 1.46 |
| ACCGTCGCGA | 1.35 |
| ACCGTGCCGA | 1.07 |
| ACCGTGCCTC | 1.33 |
| ACCGTTAAGG | 0.995 |
| ACCGTTATTA | 1.05 |
| ACCGTTCATA | 1.07 |
| ACCTAAAAGA | 1.03 |
| ACCTAGGTCG | 0.986 |
| ACCTCATCT | 0.998 |
| ACCTCGGGCT | 0.963 |
| ACCTGAAAAT | 1.02 |
| ACCTGCCACC | 1.72 |
| ACCTGCGATC | 2.88 |
| ACCTGGCCTA | 1.01 |
| ACCTGGGTCC | 1.04 |
| ACCTGGTAAA | 1.01 |
| ACCTGTCAAC | 1.08 |
| ACCTGTCGAG | 1.06 |
| ACCTGTCGCA | 1.39 |
| ACCTGTGTTT | 1.03 |

| Sequence | switch fluorescence ratio |
| --- | --- |
| ACCTTAACTA | 1.08 |
| ACCTTACATG | 1.2 |
| ACCTTAGTTG | 1.06 |
| ACCTTATCGG | 0.966 |
| ACCTTCCTTG | 3.29 |
| ACCTTGGAG | 0.994 |
| ACCTTGGTAG | 0.959 |
| ACCTTGTAGC | 1.07 |
| ACCTTTGAAC | 1.05 |
| ACGAAAGTCG | 1.01 |
| ACGAACAGCA | 1.11 |
| ACGAACCTGT | 0.981 |
| ACGAAGATAG | 1.06 |
| ACGAAGCAGG | 1.59 |
| ACGAATATTG | 1.01 |
| ACGAATCCAC | 1.1 |
| ACGAATTT | 1.06 |
| ACGACAATTA | 1.26 |
| ACGACAGGGT | 1.05 |
| ACGACCGCGT | 1.22 |
| ACGACGGAAA | 1.31 |
| ACGAGAATTG | 1 |
| ACGAGGATG | 0.996 |
| ACGAGGCAGT | 5.92 |
| ACGAGGCCCA | 1.05 |

| Sequence | switch fluorescence ratio |
| --- | --- |
| ACGAGGTCCG | 1.07 |
| ACGAGTAAGT | 1.02 |
| ACGAGTTCTG | 0.996 |
| ACGATACGTA | 0.954 |
| ACGATCCTGC | 1.06 |
| ACGATGCAG | 1.16 |
| ACGATGCCA | 0.989 |
| ACGATGCCCA | 1.05 |
| ACGATGGCGG | 1.03 |
| ACGATGTGG | 0.998 |
| ACGATTGGTC | 0.995 |
| ACGATTGTAT | 0.979 |
| ACGCAATTGG | 3.35 |
| ACGCACACGA | 1.5 |
| ACGCAGCGCT | 1.23 |
| ACGCAGTGGA | 1.07 |
| ACGCATAGG | 1.12 |
| ACGCCGAAAA | 1.17 |
| ACGCCGTGGA | 1.02 |
| ACGCCTAATG | 1.05 |
| ACGCCTGCGA | 1.11 |
| ACGCGAGTGG | 1.02 |
| ACGCGATGG | 1.22 |
| ACGCGCGTTA | 0.986 |
| ACGCGGCGGA | 0.997 |

| Sequence | switch fluorescence ratio |
| --- | --- |
| ACGCGGCGGT | 1.02 |
| ACGCGGTGGG | 1.03 |
| ACGCGTGGGA | 1.08 |
| ACGCTACGGT | 1.47 |
| ACGCTATGAC | 3.67 |
| ACGCTGGAGA | 0.992 |
| ACGGAAACTT | 1.1 |
| ACGGAAAGTA | 1.01 |
| ACGGAAATGG | 1.01 |
| ACGGAGATGA | 1.08 |
| ACGGAGTCTT | 1.02 |
| ACGGAGTGTT | 0.999 |
| ACGGATACCG | 0.965 |
| ACGGATCGTA | 0.958 |
| ACGGATCTGT | 0.934 |
| ACGGATGTTA | 1.07 |
| ACGGCACAAC | 1.38 |
| ACGGCAGCGG | 1.06 |
| ACGGCCGGGT | 1.07 |
| ACGGCGGTGG | 0.953 |
| ACGGCGTAAT | 0.956 |
| ACGGCGTTGT | 0.983 |
| ACGGCTCGTC | 0.95 |
| ACGGGACTCT | 1.26 |
| ACGGGAGGAG | 0.995 |
